# Several values for one entry are separate records, joined by “and”; a condition that tells them apart may be missing. Equal values may be shown once. Inconclusive results, whose numbers are uncertain, are shown with a selection of clear calls. For some of these results: Potencies of inconclusive entries are doubtful fits and often do not repeat. Activity calls are given as the source filed them. Calls come from the whole dose curve; as a rule, active = well fitted curve in the direction sought with a large enough effect; inconclusive = small, poorly fitted or top-dose-only effect, or another doubt; inactive = no such curve, though single readings can be large; an effect the other way counts as inactive or inconclusive.
# Key:
# [1] = biological target: Aldehyde dehydrogenase, mitochondrial (Homo sapiens) (UniProt P05091); assay: qHTS for Inhibitors of the Aldehyde Dehydrogenase Family (ALDH2) Primary screen (AID 2061308); note: nearly all actives have a fitted effect of over 55% in size; note: potency is the fitted concentration of half-maximal effect;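 for activity change, negative = inhibition: plate controls were vehicle for no effect and reference inhibitor for full effect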
# [2] = biological target: Retinaldehyde dehydrogenase 3 (Homo sapiens) (UniProt P47895); assay: qHTS for Inhibitors of the Aldehyde Dehydrogenase Family (ALDH1A3) Primary screen (AID 2061315); details: ALDH inhibition qHTS; activity change, negative = inhibition: at 56 µM (top of the series) unless noted; note: potency is the fitted concentration of half-maximal effect;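 for activity change, negative = inhibition: plate controls were DMSO vehicle for no effect and reference inhibitor for full effect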
# [3] = biological target: Retinaldehyde dehydrogenase 3 (Homo sapiens) (UniProt P47895); assay: qHTS for Inhibitors of the Aldehyde Dehydrogenase Family (ALDH1A3) Validation screen (AID 2061312); details: ALDH1A3 enzyme inhibition qHTS validation, fluorescence; activity change, negative = inhibition: at 84.7 µM (top of the series); note: nearly all actives have a fitted effect of over 45% in size; note: potency is the fitted concentration of half-maximal effect; for activity change, negative = inhibition: % is set by controls: 0 for no effect and ±100 for the full control effect
# [4] = BET inhibitor-based combinations targeting novel dependencies in MECOM-rearranged (r) AML: OCI-AML3 cell line (AID 2202232); details: CellTiter-Glo luminescence, 48 h; Potency: OCI-AML3 viability; viability (% of control): at 46 µM (top of the series); note: potency is the fitted concentration of half-maximal effect; nearly all actives have a fitted effect of over 35% in size
# How it was run: (§1)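 Viability of cells (500 per well) is scored by luminescent CellTiter-Glo at 48 hr post-dosing. Eleven-point titrations are normalized to DMSO and empty controls and reduced to AUC values.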
# [5] = BET inhibitor-based combinations targeting novel dependencies in MECOM-rearranged (r) AML: SET-2 cell line (AID 2202231); details: SET-2 AML cells viability, CellTiter-Glo luminescence, 48 h; viability: active compounds read low, concentration not given here; note: nearly all actives have a fitted effect of over 35% in size; note: potency is the fitted concentration of half-maximal effect;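 for viability: plate controls were DMSO treated cells for no effect and wells without cells for full effect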
# How it was run: as §1
# [6] = BET inhibitor-based combinations targeting novel dependencies in MECOM-rearranged (r) AML: MV-4-11 cell line (AID 2202233); details: MV-4-11 AML viability, CellTiter-Glo luminescence, 48 h; viability, % of control: at 46 µM (top of the series) unless noted; note: nearly all actives have a fitted effect of over 45% in size; note: potency is the fitted concentration of half-maximal effect;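 for viability, % of control: plate controls were DMSO for no effect and blank wells for full effect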
# How it was run: (§2)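 Using pin-tool transfer, drugs were added in 11 doses to cells (500/well), incubated 48 hr, and assessed with CellTiter-Glo. Z-AUC is a mean-centring transformation applied separately to each screened line.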
# [7] = BET inhibitor-based combinations targeting novel dependencies in MECOM-rearranged (r) AML: AML-191 cell line (AID 2202236; note: nearly all actives have a fitted effect of over 35% in size; note: potency is the fitted concentration of half-maximal effect;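 for viability (% of control): plate controls were vehicle wells for no effect and wells without cells for full effect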)
# How it was run: as §1
# [8] = BET inhibitor-based combinations targeting novel dependencies in MECOM-rearranged (r) AML: AML-194 cell line (AID 2202237; note: nearly all actives have a fitted effect of over 40% in size; note: potency is the fitted concentration of half-maximal effect;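 for viability (% of control): plate controls were vehicle wells for no effect and wells without cells for full effect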)
# How it was run: as §1
# [9] = BET inhibitor-based combinations targeting novel dependencies in MECOM-rearranged (r) AML: UCSD-AML1 cell line (AID 2202235); details: UCSD-AML1 AML cells viability, CellTiter-Glo, 48 h; viability (% of control): at 46 µM (top of the series); note: nearly all actives have a fitted effect of over 40% in size; note: potency is the fitted concentration of half-maximal effect;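 for viability (% of control): plate controls were DMSO vehicle wells for no effect and blank wells for full effect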
# How it was run: as §2
# [10] = biological target: Retinal dehydrogenase 2 (Homo sapiens) (UniProt O94788); assay: qHTS for Inhibitors of the Aldehyde Dehydrogenase Family (ALDH1A2) Confirmation screens (AID 2061314); details: activity, negative = inhibition: at 45.9 µM (top of the series) unless noted; note: potency is the fitted concentration of half-maximal effect; nearly all actives have a fitted effect of over 65% in size
# [11] = biological target: Aldehyde dehydrogenase 1A1 (Homo sapiens) (UniProt P00352); assay: qHTS for Inhibitors of the Aldehyde Dehydrogenase Family (ALDH1A1) Confirmatory screens (AID 2061316); details: activity change, negative = inhibition: at 47.3 µM (top of the series); note: % is set by controls: 0 for no effect and ±100 for the full control effect; nearly all actives have a fitted effect of over 65% in size
# [12] = BET inhibitor-based combinations targeting novel dependencies in MECOM-rearranged (r) AML: HNT-34 cell line (AID 2202234); note: nearly all actives have a fitted effect of over 35% in size; note: potency is the fitted concentration of half-maximal effect;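 for viability (% of control): plate controls were vehicle wells for no effect and cell-free wells for full effect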
# How it was run: as §2
# Tags give direction and shape of the fitted curve.
structure (smiles),measurement,setting,value
Cc1ccc(-c2nn3c(-c4ccccc4)nnc3s2)cc1NC(=O)c1ccc(-c2cccc(Cl)c2)o1,Potency,[1],"inconclusive: 12.6 µM [inhibitor, partial curve, poor fit]"
same,Potency,[2],"inconclusive: 14.1 µM [inhibitor, partial curve]"
Cc1ccnc(NC(=S)N2CCN(c3ccc(F)cc3)CC2)c1,Potency,[1],"inconclusive: 3.98 µM [inhibitor, full curve, poor fit]"
same,Potency,[2],inactive
CC(C)(C)c1ccc(C(=O)Nc2ccc(-c3nc4ccccc4[nH]3)cc2)cc1,Potency,[1],"inconclusive: 10 µM [inhibitor, partial curve]"
same,Potency,[2],inactive
O=C(NCc1cccs1)c1cc2nc(-c3ccco3)cc(C(F)(F)Cl)n2n1,Potency,[1],"inconclusive: 15.8 µM [inhibitor, partial curve, poor fit]"
same,Potency,[3],"inconclusive: 1.78 µM [inhibitor, full curve, poor fit]"
CCCC(=O)C1(c2ccccc2)CCN(C(=O)[C@@H](Cc2ccc(OC)cc2)NC(=O)[C@@H](N)Cc2cncn2C)CC1,Potency,[1],inactive
same,Potency,[3],"inconclusive: 4.47 µM [inhibitor, partial curve]"
CC1(C)CCC(c2ccc(Cl)cc2)=C(CN2CCN(c3ccc(C(=O)NS(=O)(=O)c4ccc(N[C@H](CCN5CCOCC5)CSc5ccccc5)c(S(=O)(=O)C(F)(F)F)c4)cc3)CC2)C1,Potency,[1],inactive
same,Potency,[3],inactive
same,Potency,[4],"inconclusive: 10.5 µM [inhibitor, partial curve, poor fit]"
COc1c(C)c(C(=O)c2ccc(N)c(C(=O)O)c2)n2ccccc12,Potency,[1],"inconclusive: 25.1 µM [inhibitor, partial curve, poor fit]"
same,Potency,[3],"inconclusive: 39.8 µM [inhibitor, partial curve, poor fit]"
same,Potency,[2],"inconclusive: 28.2 µM [inhibitor, partial curve] and inconclusive: 17.8 µM [inhibitor, partial curve]"
Cc1cc(C)nc(NC(=S)N2CCN(c3cccc(C(=O)O)c3)CC2)c1,Potency,[1],"inconclusive: 17.8 µM [inhibitor, single point]"
same,Potency,[2],"inconclusive: 22.4 µM [inhibitor, partial curve, poor fit]"
CC#C[C@@H](CC(=O)O)c1ccc(OCc2cccc(-c3ccc(C(F)(F)F)cc3)c2)cc1,Potency,[1],inactive
same,Potency,[3],inactive
same,Potency,[5],"inconclusive: 20.9 µM [inhibitor, partial curve, poor fit]"
same,Potency,[4],"inconclusive: 10.5 µM [inhibitor, full curve, poor fit]"
same,Potency,[6],"inconclusive: 20.9 µM [inhibitor, partial curve, poor fit]"
same,Potency,[7],active: 20.9 µM
same,Potency,[8],"inconclusive: 23.5 µM [inhibitor, partial curve, poor fit]"
COc1ccc(NCc2ccc(O)c3ncccc23)nc1,Potency,[1],"inconclusive: 31.6 µM [inhibitor, partial curve]"
same,Potency,[2],"inconclusive: 12.6 µM [inhibitor, single point]"
Cc1ccnc(NC(=S)N2CCN(c3cccc(C(F)(F)F)c3)CC2)n1,Potency,[1],"inconclusive: 39.8 µM [inhibitor, partial curve, poor fit]"
same,Potency,[2],inactive
Cc1ccccc1-n1c(Cn2nc(-c3cccc(O)c3)c3c(N)ncnc32)nc2cccc(C)c2c1=O,Potency,[1],inactive
same,Potency,[3],"inconclusive: 10 µM [inhibitor, partial curve, poor fit]"
same,Potency,[4],active: 1.86 µM
same,Potency,[6],active: 0.296 µM
same,Potency,[9],"inconclusive: 4.17 µM [inhibitor, partial curve, poor fit]"
same,Potency,[7],active: 14.8 µM
C/C(=C\c1cc2ccccc2o1)C1Nc2cccc3cccc(c23)N1,Potency,[1],"inconclusive: 8.91 µM [inhibitor, partial curve, poor fit]"
same,Potency,[2],"inconclusive: 3.16 µM [inhibitor, full curve]"
O=C1CC(c2ccc([N+](=O)[O-])cc2)=NN1c1ccccc1,Potency,[1],"inconclusive: 2.51 µM [inhibitor, full curve]"
same,Potency,[10],"inconclusive: 12.7 µM [inhibitor, partial curve]"
same,Potency,[2],"inconclusive: 28.2 µM [inhibitor, single point]"
same,Potency,[11],inactive
Oc1ccc(COCc2ccccc2)c2cccnc12,Potency,[1],"inconclusive: 4.47 µM [inhibitor, partial curve, poor fit]"
same,Potency,[2],"inconclusive: 31.6 µM [inhibitor, single point]"
CC(=O)N1CCc2ccc(O)c(OC3OC(COC4OCC(O)(CO)C4O)C(O)C(O)C3O)c2C1Cc1ccc(O)cc1 (stereo not given),Potency,[1],inactive
same,Potency,[2],"inconclusive: 4.47 µM [inhibitor, partial curve]"
O=C1CCCC2=C1C1(CCCC1)N=C(Nc1nc3ccccc3o1)N2,Potency,[1],"inconclusive: 22.4 µM [inhibitor, single point]"
same,Potency,[2],inactive
COC1CC(OC2CCC3(C)C(=CCC4C3CCC3(C)C(C(C)O)CCC43O)C2)OC(C)C1OC1OC(C)C(OC2OC(COC3OC(COC4OC(CO)C(O)C(O)C4O)C(O)C(O)C3O)C(O)C(O)C2O)C(OC)C1O (stereo not given),Potency,[1],inactive
same,Potency,[2],"inconclusive: 11.2 µM [inhibitor, single point]"
CO[C@H]1/C=C\O[C@@]2(C)Oc3c(C)c(O)c4c(O)c(c5c(nc6cc(C)ccn65)c4c3C2=O)NC(=O)/C(C)=C\C=C/[C@H](C)[C@H](O)[C@@H](C)[C@@H](O)[C@@H](C)[C@H](OC(C)=O)[C@@H]1C,Potency,[1],"inconclusive: 3.98 µM [inhibitor, full curve, poor fit]"
same,Potency,[3],"inconclusive: 35.5 µM [inhibitor, partial curve]"
same,Potency,[2],"inconclusive: 3.16 µM [inhibitor, full curve]"
Cc1ccnc(NC(=S)N2CCN(c3ccc(Cl)c(Cl)c3)CC2)c1,Potency,[1],"inconclusive: 3.16 µM [inhibitor, single point]"
same,Potency,[2],"inconclusive: 3.98 µM [inhibitor, partial curve, poor fit]"
CC1=C[C@H](O)[C@H]2C(C)(C)CCC[C@]2(C)[C@@]1(O)CO,Potency,[1],inactive
same,Potency,[2],inactive
COc1cccc(-c2csc(N3CCC(C(N)=O)CC3)n2)c1,Potency,[1],inactive
same,Potency,[2],inactive
CN1CCN(c2ccc(Nc3c4ccccc4nc4ccccc34)cc2)CC1,Potency,[1],inactive
same,Potency,[2],"inconclusive: 15.8 µM [inhibitor, partial curve, poor fit]"
CC(C)N(CCCNC(=O)Nc1ccc(C(C)(C)C)cc1)C[C@H]1O[C@@H](n2ccc3c(N)ncnc32)[C@H](O)[C@@H]1O,Potency,[1],inactive
same,viability,[5],inactive: 93.2%
same,Potency,[4],"inconclusive: 14.8 µM [inhibitor, partial curve, poor fit]"
same,Potency,[6],"inconclusive: 4.17 µM [inhibitor, full curve]"
same,Potency,[9],inactive
same,Potency,[7],inactive
same,Potency,[8],inactive
CNc1nc(Nc2cnn([C@H]3CCN(C4COC4)C[C@@H]3F)c2Cl)ncc1C(F)(F)F,Potency,[1],inactive
same,viability,[5],inactive: 94.3%
same,Potency,[4],"inconclusive: 16.6 µM [inhibitor, partial curve, poor fit]"
same,Potency,[12],"inconclusive: 33.2 µM [inhibitor, single point]"
same,Potency,[9],"inconclusive: 33.2 µM [inhibitor, single point]"
O=C(O)c1cc(O)c2cccc(O)c2c1O[C@@H]1O[C@H](CO)[C@@H](O)[C@H](O)[C@H]1O,Potency,[1],"inconclusive: 10 µM [inhibitor, partial curve]"
same,Potency,[2],active: 6.31 µM
O=C(O)CCc1cc2ccoc2cc1O[C@@H]1O[C@H](CO)[C@@H](O)[C@H](O)[C@H]1O,Potency,[1],inactive
same,Potency,[2],inactive
Cc1ccc(NCc2ccc(O)c3ncccc23)c(F)c1,Potency,[1],"inconclusive: 35.5 µM [inhibitor, single point]"
same,Potency,[2],"inconclusive: 20 µM [inhibitor, single point]"
CC(=O)c1ccc(N2CCN(C(=S)Nc3cc(C)ccn3)CC2)cc1,Potency,[1],"inconclusive: 5.01 µM [inhibitor, single point]"
same,Potency,[2],"inconclusive: 3.98 µM [inhibitor, single point]"
Cc1cc2c(cc1CC(=O)c1sccc1S(=O)(=O)Nc1onc(C)c1Cl)OCO2,Potency,[1],"inconclusive: 39.8 µM [inhibitor, single point]"
same,Potency,[2],"inconclusive: 14.1 µM [inhibitor, partial curve, poor fit]"
same,viability,[5],inactive: 68.3%
same,Potency,[4],"inconclusive: 16.6 µM [inhibitor, partial curve, poor fit]"
same,Potency,[9],inactive
same,Potency,[8],"inconclusive: 20.9 µM [inhibitor, partial curve]"
CC(=O)Nc1sc2c(c1-c1ccc3scnc3c1)CCNC2,Potency,[1],"inconclusive: 35.5 µM [inhibitor, single point]"
same,Potency,[2],"inconclusive: 17.8 µM [inhibitor, partial curve, poor fit]"
C[C@H](Nc1ncnc2nc[nH]c12)c1cc2ccc(F)cc2nc1-c1ccccn1,Potency,[1],"inconclusive: 39.8 µM [inhibitor, partial curve, poor fit]"
same,Potency,[5],"inconclusive: 13.2 µM [inhibitor, partial curve, poor fit]"
same,Potency,[4],"inconclusive: 4.17 µM [inhibitor, full curve]"
same,Potency,[6],"inconclusive: 6.61 µM [inhibitor, partial curve]"
same,Potency,[9],"inconclusive: 6.61 µM [inhibitor, single point]"
same,Potency,[8],"inconclusive: 26.3 µM [inhibitor, single point]"
CCC(=O)NS(=O)(=O)c1ccc(-c2c(-c3ccccc3)noc2C)cc1,Potency,[1],inactive
same,Potency,[2],inactive
same,viability,[5],inactive: 114%
same,Potency,[6],inactive
same,Potency,[12],inactive
same,Potency,[9],"inconclusive: 33.2 µM [inhibitor, single point]"

# — PubChem BioAssay (NCATS)
